# Test results published in ChEMBL document CHEMBL1201862, “PubChem BioAssay data set” (2004).
#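 These data come from cells grown in 96-well plates and exposed to compound for 48 hours at five concentrations. GI50 marks 50% less growth.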 Calls of active or inactive are those of the source. Cut-off read from the data, not from the text of the source: active = GI50 up to about 1.1 µM and inactive = higher.
# Test system: NCI-H322M
# Test: growth of human tumour cells (NCI), 48 h
row,Structure (SMILES),GI50
1,C[C@]12CC[C@H](O)C[C@@H]1CC[C@@H]1[C@@H]2CC[C@]2(C)[C@@H](C3=CC(=O)OC3)CC[C@]12O,inactive: 3.21 µM
2,O=[N+]([O-])C(/C=C(\Cl)[N+](=O)[O-])=C(N1CCCCC1)N1CCCCC1,inactive: 61.9 µM
3,N#CC1CC(c2ccccc2)Nc2cc(Cl)ccc2N1 (stereo not drawn),inactive: 64.7 µM
4,CN(C)CCn1c(=O)c2ccc3c4c(nn3CCN(C)C)c3cc(O)ccc3n(c1=O)c24,active: < 0.0108 µM
5,CN1CN(c2ccccc2)C2(CCN(CCCSc3ccccc3NC(=O)/C=C/c3ccccc3)CC2)C1=O,inactive: > 100 µM
6,C/C(=N\O)c1ccc(Nc2c3ccccc3nc3occc23)cc1,inactive: 5.87 µM
7,O=C(O)CC(CC(=O)O)n1cccc1,inactive: > 100 µM
8,CCOc1ccc(C(CN2CCOCC2)C(C)=O)cc1OC (stereo not drawn),inactive: 67.5 µM
9,C/C(=N/NS(=O)(=O)c1ccc(C)cc1)c1cccc[n+]1[O-],inactive: > 100 µM
10,CC1=NN(c2nc(N)nc(CBr)n2)C(C)(C)C1,inactive: 16.1 µM
11,COC(=O)CC(SCCO)SCCO,inactive: > 100 µM
12,C#C[C@]1(O)CCC2C3CCc4cc(Oc5nc(F)nc(-n6c(C)nc7cc8ccccc8cc76)n5)ccc4C3CCC21C (stereo partly drawn),inactive: > 100 µM
13,CN(Cc1cnc2nc(N)nc(N)c2n1)c1ccc(C(=O)NC(CO)CCCO)cc1 (stereo not drawn),inactive: > 100 µM
14,c1ccc(C2=NOC3COc4ccccc4OCC23)cc1 (stereo not drawn),inactive: > 100 µM
15,CSc1nc2ccccc2c(=O)n1/N=C1\C(=O)N(CN2CCCCC2)c2ccc(Cl)cc21,inactive: 49.3 µM
16,COC(=O)C(CCCCN)NC(=O)C(CCCCN)NC(=O)C(CCCCN)NC(C)=O.Cc1ccc(C(=O)Nc2ccc(S(=O)(=O)O)c3cc(S(=O)(=O)O)cc(S(=O)(=O)O)c23)cc1NC(=O)c1cccc(NC(=O)Nc2cccc(C(=O)Nc3cc(C(=O)Nc4ccc(S(=O)(=O)O)c5cc(S(=O)(=O)O)cc(S(=O)(=O)O)c45)ccc3C)c2)c1,inactive: > 50 µM
17,CCOC(=O)c1nc2ccc(Cl)cc2c2c1CCO2,inactive: > 100 µM
18,CO/N=C(/C)c1cccc(Nc2nc3ccccc3c3[nH]c4ccccc4c23)c1,inactive: 3.01 µM
19,CNS(=O)(=O)NNS(=O)(=O)c1ccc(F)cc1,inactive: > 100 µM
20,CCc1n[nH]c(=O)n1/N=C/c1ccccc1O,inactive: > 100 µM
21,N#CC(N)c1ccc(OCCCCCCCCCCOc2ccc(C(N)C#N)cc2)cc1 (stereo not drawn),inactive: > 100 µM
22,N#CC(C(=O)C(=O)NCCCNC(=O)C(=O)C(C#N)c1ccccc1)c1ccccc1 (stereo not drawn),inactive: > 100 µM
23,O=C1C(Cl)C(c2ccccc2Cl)N1n1cnc2ccccc2c1=O (stereo not drawn),inactive: 41.2 µM
24,CC1CCN(c2cc(-c3cc4ccccc4o3)oc(=O)c2C#N)CC1,inactive: > 100 µM

row,Structure (SMILES),GI50
1,N#CC(C#N)=CNC(N)=S,inactive: > 100 µM
2,NC(=O)C[S+]([O-])CC(N)C(=O)O (stereo not drawn),inactive: > 100 µM
3,CCNC1=C(NC(=O)CCl)C(=O)c2ccccc2C1=O,inactive: 18.8 µM
4,CCCCCCCCCCCCCCCCNC(=O)/C(=C\c1ccc(Cl)c(Cl)c1)NC(=O)c1ccccc1,inactive: 51.4 µM
5,CC[C@@]1(OC(=O)C(N)CCCCN)C(=O)OCc2c1cc1n(c2=O)Cc2cc3ccccc3nc2-1 (stereo partly drawn),active: 0.121 µM
6,C/C(=C\c1csc(C)n1)[C@@H]1C[C@@H]2O[C@@H]2CCC[C@H](C)[C@H](O)[C@@H](C)C(=O)C(C)(C)[C@@H](O)CC(=O)O1.C/C(=C\c1csc(C)n1)[C@@H]1C[C@@H]2O[C@]2(C)CCC[C@H](C)[C@H](O)[C@@H](C)C(=O)C(C)(C)[C@@H](O)CC(=O)O1,active: 0.00524 µM
7,CCOC(=O)c1nc2cc(Cl)ccc2[nH]c1=O,inactive: > 100 µM
8,CC#CC1C2CCCC1(CSc1ccccc1)NC(=O)O2 (stereo not drawn),inactive: > 100 µM
9,NCCCCCS(=O)(=O)O,inactive: > 100 µM
10,O=C1OC(C2Cc3cc4c(cc3C2=O)CCC4)c2ccccc21 (stereo not drawn),inactive: 44.6 µM
11,CN1CCc2cc(N)cc3c2C1Cc1ccc2c(c1-3)OCO2 (stereo not drawn),inactive: 30.8 µM
12,O=S(=O)(CCCCl)SCCCCl,inactive: > 79.6 µM
13,Cc1ccc(S(=O)(=O)n2cc(C=O)c(-c3cn(S(=O)(=O)c4ccc(C)cc4)cc3-c3cn(S(=O)(=O)c4ccc(C)cc4)cc3C=O)c2)cc1,inactive: 54.8 µM
14,C#CC1(O)CCCCCCCCC2(CCCCCCCC1)OCCO2,inactive: 20.2 µM
15,C/C(=N/NC(N)=S)c1ccc[nH]1,inactive: > 100 µM
16,O=C(N/C=C/C=C/Sc1ccccc1)OCc1ccccc1,inactive: 19.9 µM
17,CC1(C)OC(=O)C(=Cc2ccc([N+](=O)[O-])s2)C(=O)O1,inactive: 43.3 µM
18,OC1(c2ccccc2)CSC2=Nc3ccccc3C3CCN1N23 (stereo not drawn),inactive: 19.9 µM
19,CCOC(CCNCC(OCC)OCC)OCC,inactive: > 10 µM
20,O=C1Nc2ccccc2/C1=N/N=C1NCCCCN1,inactive: > 100 µM
21,Cc1cn(CCOCCOC(=O)NC(CCCNC(=N)N)C(=O)O)c(=O)[nH]c1=O (stereo not drawn),inactive: > 100 µM
22,C[C@]12Cc3conc3C(O)=C1CC[C@@H]1C2CC[C@@]2(C)C1CC[C@]2(C)O (stereo partly drawn),inactive: 29.5 µM
23,CC(C)(C)C1CC[C@H]2c3c([nH]c4ccc(Br)cc34)[C@H]3C(=O)N(c4ccccc4)C(=O)[C@H]3[C@H]2C1 (stereo partly drawn),inactive: 85.7 µM
24,CCCCCCCCCCC(=O)CCCCCCC(=O)O,inactive: 19.9 µM

row,Structure (SMILES),GI50
1,CC(C)(C)C1=CC(=NNC(=S)NCc2ccccc2)C=C(C(C)(C)C)C1=O,inactive: > 100 µM
2,COC(=O)/C=C(\S/C(=C(/c1ccccc1)n1cc(C(=O)OC)c(C(=O)OC)n1)c1ccccc1)C(=O)OC,inactive: 20.8 µM
3,Cc1cc(S(=O)(=O)N2CCNNC2=O)c(S)cc1Cl,inactive: 5.9 µM
4,CC(=O)OC1COC(n2c(=S)n(-c3ccccc3)c(=O)c3ccccc32)C(OC(C)=O)C1OC(C)=O (stereo not drawn),inactive: > 100 µM
5,O=C1NC2(CCCCC2)C2CCCCC=C12 (stereo not drawn),inactive: > 100 µM
6,COc1ccc2c(c1)CCN1CCc3ccccc3CC21 (stereo not drawn),inactive: 48.2 µM
7,CCCCCCCCCCCC(=O)CC(=O)c1c(O)cccc1O,inactive: 20.2 µM
8,CC(C)(C)OC(=O)CN1CCNCCN(CC(=O)OC(C)(C)C)CC1,inactive: > 100 µM
9,O=C(OCc1ccccc1)N(CCCCN(CCCNC(=O)C(F)(F)F)C(=O)OCc1ccccc1)CCCNC(=O)C(F)(F)F,inactive: > 100 µM
10,OC1(c2ccccc2)CCN(Cc2c[nH]c3ccccc23)CC1,inactive: 68.9 µM
11,Cc1nc2c(=S)[nH]ncc2[nH]1,inactive: > 100 µM
12,CCOC(=O)C(C(=O)OCC)C(=O)c1ccccc1C(=O)c1ccccc1,inactive: > 100 µM
13,CC1(C)C(O)OC(O)C1(C)C (stereo not drawn),inactive: > 100 µM
14,CC1=NN(c2nc(N)nc(C(C)Sc3cc(Cl)c(C)cc3S(N)(=O)=O)n2)C(C)(C)C1 (stereo not drawn),inactive: > 10 µM
15,O=C1C(Cl)C(c2cccc(Br)c2)N1c1c(O)c(Cl)cc(Br)c1Cl (stereo not drawn),inactive: 13.2 µM
16,Fc1ccc2c(c1)nc1n2C(c2c(F)cccc2F)SC1 (stereo not drawn),inactive: 78.9 µM
17,Cn1c2c(c3ccccc31)CCN1C(=O)CCC21 (stereo not drawn),inactive: > 10 µM
18,COc1ccc(Nc2nc(NNC(=O)Cc3ccccc3)nc(NNC(=O)c3ccncc3)n2)cc1,inactive: > 10 µM
19,Cc1ccccc1OC(C)C(=O)NN1C(=O)CC(=O)N(c2ccc(Cl)cc2)C1=S (stereo not drawn),inactive: 34.8 µM
20,Cn1cnc(N2CCCC2)c(C#N)c1=S,inactive: > 100 µM
21,COC(=O)c1c(C)cccc1C1CN=NC12Cc1cc(C)c(C)cc1C2=O (stereo not drawn),inactive: > 100 µM
22,COC(=O)C1(CCCCl)CCCN1C(=O)OC(C)(C)C (stereo not drawn),inactive: > 100 µM
23,NC(=O)C(=O)c1ncn(Cc2ccccc2)c1N,inactive: > 100 µM
24,CCOc1cc(NC(C)=O)ccc1C(=O)NN1C(=O)/C(=C/c2ccc(Cl)cc2)N=C1c1ccccc1,inactive: > 100 µM

row,Structure (SMILES),GI50
1,NNC(=O)CCC(=O)NC1C2CC3CC(C2)CC1C3 (stereo not drawn),inactive: > 100 µM
2,CCOC(=O)Cc1nc2ccccc2s1,inactive: 22.9 µM
3,C/C(=N\c1cccc(Cl)c1)c1ccncc1,inactive: 88.7 µM
4,O=P(Nc1ccc(Cl)cc1)(Oc1ccccc1)N(CCCl)CCCl (stereo not drawn),inactive: > 100 µM
5,CC(=O)Nc1cccc2[nH]c3ccccc3c(=O)c12,inactive: 24 µM
6,C=C(Cl)/C(=C/Cl)CCC(Br)C(C)(C)Cl.C=C(Cl)/C(=C\Cl)CCC(Br)C(C)(C)Cl (stereo not drawn),inactive: > 10 µM
7,O=C(O)CNS(=O)(=O)c1ccc(NC(=O)c2ccc([N+](=O)[O-])cc2)cc1,inactive: > 100 µM
8,COC(=O)c1ccc(C)cc1C1CN=NC12Cc1c(C)cccc1C2=O (stereo not drawn),inactive: 75.5 µM
9,COC1(C)C(=O)N2C1N(C(=O)OC(C)(C)C)CC2(C)C (stereo not drawn),inactive: > 100 µM
10,Cc1cc(/N=N/c2c(O)ccc3ccccc23)ccc1/N=N/c1cccc([N+](C)(C)C)c1,inactive: 22.3 µM
11,O=C1OC(=O)C2C3C=CC(C12)C1C2C=CC2C31 (stereo not drawn),inactive: > 100 µM
12,O=C1/C(=C\c2cccc(Oc3ccccc3)c2)SC(c2ccccc2)N1c1ccccc1 (stereo not drawn),inactive: > 100 µM
13,COc1cccc2c1C(=O)c1c(O)c3c(c(O)c1C2=O)CC(O)(C(C)=O)CC3OC1OC(COC(C)=O)C(OC(C)=O)C(OC(C)=O)C1OC(C)=O (stereo not drawn),inactive: 93.5 µM
14,O=C(/C=C/c1ccccc1Br)c1ccccc1,inactive: 14.8 µM
15,CCCCCCCCCCCCCCCCCC[N+](C)(C)Cc1ccc(C[N+](C)(C)CCCCCCCCCCCCCCCCCC)cc1,inactive: 16.4 µM
16,O=C(O)CN(c1ccccc1)S(=O)(=O)c1ccccc1[N+](=O)[O-],inactive: > 100 µM
17,O=C(CN1CCCC1)Nc1ccc2sc3ccccc3c(=O)c2n1,inactive: 20 µM
18,CC1OC(CO)(n2cnc3c(N)ncnc32)C(O)C1O (stereo not drawn),inactive: > 100 µM
19,O=C1CCC2(c3ccccc3)Nc3ccc(Cl)cc3N12 (stereo not drawn),inactive: > 100 µM
20,COc1ccc(-c2oc3c(OC)c(OC)c(OC)c(O)c3c(=O)c2OC)cc1OC,inactive: 46.2 µM
21,Cn1c(=O)nc2n(-c3cccc(Cl)c3)c3ccccc3nc-2c1=O,inactive: 20.7 µM
